From PubChem BioAssay AID1345083 (National Center for Advancing Translational Sciences (NCATS), 2018)
Hit rate of the full screen: of about 94,000 compounds, about 6,200 (6.6%) were called active. Inconclusive means that the source gave no clear call. Such entries were picked first, then a sample of the others. Calls come from the whole dose curve; as a rule, active = well fitted inhibition curve with a large enough effect; inconclusive = small, poorly fitted or top-dose-only effect; inactive = flat fitted curve, though single readings scatter. Potencies of inconclusive entries are doubtful fits and often do not repeat.

Test: Cytotoxic Profiling in HEK 293 Cell Line of Diverse Libraries Using Quantitative High-Throughput Screening; note: nearly all actives have a fitted effect of over 60% in size
Conditions: HEK 293 viability, ATP luminescence (CellTiter-Glo), 48-72 h; activity change, negative = cytotoxicity: at 115 µM (top of the series) unless noted; series mostly up to 115 µM
Method in brief: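 Pintool-delivered compounds were incubated with HEK 293 cells (250 cells/well) at 37 degree Celsius for 48 or 72 hr. ATP-dependent luminescence (CellTiter-Glo) then reported remaining viable cells.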
% is set by controls: 0 for no effect and ±100 for the full control effect; potency is the fitted concentration of half-maximal effect; tags give direction and shape of the fitted curve.

Row | SMILES | activity change, negative = cytotoxicity | Potency | outcome
1 | CN(CC[C@H]1CN(C(=O)c2ccc(C(F)(F)F)cc2)CC[C@H]1CC(=O)O)c1ccccc1 | inactive: -0.253% | – | –
2 | CN1CCN(C(=O)c2csc(N3CCN(c4ccc(Cl)cc4)CC3)n2)CC1 | – | inconclusive: 35.5 µM [inhibitor, partial curve, poor fit] | –
3 | COCCNC(=O)C1COC2(CCN(C(=O)c3ccc(OC)cc3)CC2)N1C(=O)c1ccc(C)cc1 (centres undefined) | inactive: -19.9% | – | –
4 | O=C(c1cn2ccsc2n1)N1CC[C@H](CO)[C@@H](O)C1 | inactive: -2.21% | – | –
5 | Cc1ccc(C(=O)N2CCC(c3n[nH]c(=O)n3-c3ccccc3)CC2)cc1F | inactive: 2.52% | – | –
6 | COc1ccc(Nc2cccc(CN3CCCC(C)(NC(C)=O)C3)c2)cc1 (centres undefined) | – | inconclusive: 126 µM [inhibitor, partial curve, poor fit] | –
7 | O=C(CCc1ccccc1)N1CCC(O)(c2csc(CN3CCc4ccccc4C3)n2)CC1 | – | inconclusive: 50.1 µM [inhibitor, partial curve, poor fit] | –
8 | CCC(=O)N1CCC(N2C(=O)[C@H](OCCOC)[C@@H]2c2ccncc2)CC1 | inactive: -0.612% | – | –
9 | O=C(Nc1ccccc1)O[C@@H]1CO[C@H]2[C@@H]1OC[C@@H]2n1nnnc1SC1CCCC1 | – | inconclusive: 100 µM [inhibitor, partial curve, poor fit] | –
10 | O=C(C1CCCC1)N1CCCN(c2ccnc3ccnn23)CC1 | – | inconclusive: 100 µM [inhibitor, partial curve] | –
11 | O=C(N[C@@H]1CCC[C@@H]1C(=O)N1CCCC1)c1ccncc1 | – | – | inactive
12 | CCCS(=O)(=O)N1CCC2(CC1)c1[nH]c3ccccc3c1CCN2C | – | inconclusive: 50.1 µM [inhibitor, partial curve, poor fit] | –
13 | Cn1cc(CC(=O)N2CCCc3ncc(C(=O)NCc4cccc(F)c4)cc32)c2ccccc21 | – | inconclusive: 50.1 µM [inhibitor, partial curve, poor fit] | –
14 | COCCOC1CCN(C(=O)c2cccc(C)c2)CC1 | inactive: 14.2% | – | –
15 | OC[C@@H]1CN(Cc2ccoc2)C[C@H]1c1nc(-c2ccncc2)no1 | – | inconclusive: 89.1 µM [inhibitor, single point] | –
16 | COc1ccc(C(=O)N2CCC(c3nn(C)c(=O)n3Cc3ccccc3)CC2)cc1F | inactive: 2.11% | – | –
17 | COc1ccc(F)cc1-c1ccc(CN2CCC(NC(=O)Nc3ccccc3)C2)cc1 (centres undefined) | – | active: 20 µM | –
18 | Cc1ccc(CN2CCCC3(COc4ccccc4C(=O)N3)C2)cc1 (centres undefined) | – | inconclusive: 126 µM [inhibitor, partial curve, poor fit] | –
19 | CN1[C@@H](CCC(=O)NCc2ccccc2)CNC(=O)[C@@H]2[C@H]1CCN2Cc1ccc(O)cc1 | inactive: -3.67% | – | –
